The text below walks through data of publication PMC9911399, “Two distinct binding modes provide the RNA-binding protein RbFox with extraordinary sequence specificity”.

Substitutions are numbered along the chain they refer to; changes in the protein carry UniProt numbers. The list shows a part of the results.

To fix the notation:
T1: RBFOX1 RRM RbFoxmut (Fox-RRM*) (Homo sapiens, UniProt Q9NWB1 109-208, R118D;E147R;N151S;E152T)
T1 sequence: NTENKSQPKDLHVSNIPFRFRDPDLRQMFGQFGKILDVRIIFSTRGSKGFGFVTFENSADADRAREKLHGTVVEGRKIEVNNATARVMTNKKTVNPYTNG

B1: UACCGCU (DNA:RNA)
RNA: GGGAGACCGGAAUUCAGAUUGUCCUACCGCUUUAAAUCCCGUCGUAGCCACCA
DNA 1: CAATCTGAATTCCGGTCTCCC
DNA 2: TGGTGGCTACGACGGGATT
B2: CUCUCAC (DNA:RNA)
RNA: B1 RNA with U25C, A26U, C28U, G29C, C30A, U31C
DNA 1: CAATCTGAATTCCGGTCTCCC
DNA 2: TGGTGGCTACGACGGGATT
B3: CACGGAA (DNA:RNA)
RNA: B1 RNA with U25C, C28G, C30A, U31A
DNA 1: CAATCTGAATTCCGGTCTCCC
DNA 2: TGGTGGCTACGACGGGATT
B4: GAGUUGA (DNA:RNA)
RNA: B1 RNA with U25G, C27G, C28U, G29U, C30G, U31A
DNA 1: CAATCTGAATTCCGGTCTCCC
DNA 2: TGGTGGCTACGACGGGATT
B5: GAAUCGC (DNA:RNA)
RNA: B1 RNA with U25G, C27A, C28U, G29C, C30G, U31C
DNA 1: CAATCTGAATTCCGGTCTCCC
DNA 2: TGGTGGCTACGACGGGATT
B6: GAUUAAC (DNA:RNA)
RNA: B1 RNA with U25G, C27U, C28U, G29A, C30A, U31C
DNA 1: CAATCTGAATTCCGGTCTCCC
DNA 2: TGGTGGCTACGACGGGATT
B7: UCCAACU (DNA:RNA)
RNA: B1 RNA with A26C, C28A, G29A
DNA 1: CAATCTGAATTCCGGTCTCCC
DNA 2: TGGTGGCTACGACGGGATT
B8: AUGUUAG (DNA:RNA)
RNA: GGGAGACCGGAAUUCAGAUUGUCCAUGUUAGUUAAAUCCCGUCGUAGCCACCA
DNA 1: CAATCTGAATTCCGGTCTCCC
DNA 2: TGGTGGCTACGACGGGATT
B9: ACGAUUA (DNA:RNA)
RNA: B8 RNA with U26C, U28A, A30U, G31A
DNA 1: CAATCTGAATTCCGGTCTCCC
DNA 2: TGGTGGCTACGACGGGATT
B10: CAUGGUC (DNA:RNA)
RNA: B1 RNA with U25C, C27U, C28G, C30U, U31C
DNA 1: CAATCTGAATTCCGGTCTCCC
DNA 2: TGGTGGCTACGACGGGATT
B11: AUAUGGC (DNA:RNA)
RNA: B8 RNA with G27A, U29G, A30G, G31C
DNA 1: CAATCTGAATTCCGGTCTCCC
DNA 2: TGGTGGCTACGACGGGATT
B12: ACUUCCA (DNA:RNA)
RNA: B8 RNA with U26C, G27U, U29C, A30C, G31A
DNA 1: CAATCTGAATTCCGGTCTCCC
DNA 2: TGGTGGCTACGACGGGATT
B13: AUCCGCG (DNA:RNA)
RNA: B1 RNA with U25A, A26U, U31G
DNA 1: CAATCTGAATTCCGGTCTCCC
DNA 2: TGGTGGCTACGACGGGATT
B14: UACGGAC (DNA:RNA)
RNA: B1 RNA with C28G, C30A, U31C
DNA 1: CAATCTGAATTCCGGTCTCCC
DNA 2: TGGTGGCTACGACGGGATT
B15: UAUGGAG (DNA:RNA)
RNA: B1 RNA with C27U, C28G, C30A, U31G
DNA 1: CAATCTGAATTCCGGTCTCCC
DNA 2: TGGTGGCTACGACGGGATT
B16: CCGGGUC (DNA:RNA)
RNA: B8 RNA with A25C, U26C, U28G, U29G, A30U, G31C
DNA 1: CAATCTGAATTCCGGTCTCCC
DNA 2: TGGTGGCTACGACGGGATT
B17: UGGAAUC (DNA:RNA)
RNA: B8 RNA with A25U, U26G, U28A, U29A, A30U, G31C
DNA 1: CAATCTGAATTCCGGTCTCCC
DNA 2: TGGTGGCTACGACGGGATT
B18: CGCCUCU (DNA:RNA)
RNA: B1 RNA with U25C, A26G, G29U
DNA 1: CAATCTGAATTCCGGTCTCCC
DNA 2: TGGTGGCTACGACGGGATT
B19: GAGCAAC (DNA:RNA)
RNA: B8 RNA with A25G, U26A, U28C, U29A, G31C
DNA 1: CAATCTGAATTCCGGTCTCCC
DNA 2: TGGTGGCTACGACGGGATT
B20: UCUAAUC (DNA:RNA)
RNA: B1 RNA with A26C, C27U, C28A, G29A, C30U, U31C
DNA 1: CAATCTGAATTCCGGTCTCCC
DNA 2: TGGTGGCTACGACGGGATT

For this experiment, the target named is T1, RBFOX1 RRM RbFoxmut (Fox-RRM*). As to the kind of experiment: EMSA; HiTS-Eq, 1 nM pool, 10 min; buffer printed only for the single-RNA assays: 10 mM Tris pH 7.5, 150 mM NaCl, 3.4 mM EDTA, 0.001% NP-40, 30 C. The settings on record: tags: His6 N-terminal (pET28a); label: 5' 32P. The method in brief: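 Purified RbFox RRM, wild type or mutant, was incubated for 10 min in 50 µL with 1 nM of a 5′-radiolabelled RNA pool carrying 7 randomized nucleotides, whose flanks were annealed to DNA oligonucleotides, over a series of increasing protein concentrations. Unbound RNA was resolved on 8% native PAGE, cut out, reverse-transcribed, barcoded by PCR and sequenced on an Illumina HiSeq 2500. Relative association constants were derived from changes in read counts for each RNA species versus the control reaction and normalised to the cognate motif.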
(In general: In EMSA bound probe runs differently from free probe, usually more slowly.)
As for B1, the binding signal is 0.0903 KA relative to UGCAUGU.
B2: the binding signal is 0.0938 KA relative to UGCAUGU.
The result for B3 reads 0.0884 KA relative to UGCAUGU.
In the case of B4, the binding signal is 0.0977 KA relative to UGCAUGU.
On to B5, for which the binding signal was 0.512 KA relative to UGCAUGU.
Next, B6: 0.0762 KA relative to UGCAUGU.
Next, B7: 0.103 KA relative to UGCAUGU; B8: 0.213 KA relative to UGCAUGU; B9: 0.0953 KA relative to UGCAUGU.
Next, B10: 0.186 KA relative to UGCAUGU; B11: 0.138 KA relative to UGCAUGU.
As for B12, the binding signal is 0.0542 KA relative to UGCAUGU.
The result for B13 reads 0.118 KA relative to UGCAUGU; that for B14, 0.0866 KA relative to UGCAUGU.
As to B15, the binding signal was 0.105 KA relative to UGCAUGU.
The result for B16 reads 0.217 KA relative to UGCAUGU; that for B17, 0.458 KA relative to UGCAUGU.
Next, B18: 0.0759 KA relative to UGCAUGU; B19: 0.062 KA relative to UGCAUGU.
As to B20, the binding signal is 0.0543 KA relative to UGCAUGU.
